Experimental findings from the supplement of paper PMC10338343 are described below.

± gives the standard deviation. This is a selection; strong and weak results do not stand in their true shares.
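Further: 1 nM active piRISC with 0.1 nM target library at 33 °C single turnover.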

The first test concerns MIWI (PIWIL1) piRISC loaded with L1MC piRNA (30 nt). The experiment in a line: pre-steady-state target cleavage rate (min^-1); MIWI and MILI are mouse PIWI proteins and EfPiwi is from a freshwater sponge; tags in brackets are library labels; higher = faster piRNA-guided slicing of the target. The settings on record: guide: L1MC piRNA 5'p-UAACUAAAUACUAUGCAAGCUGUAGGUCCU; auxiliary factor: 500 nM mouse GTSF1. An outline of the steps:
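The pre-steady-state cleavage rate was calculated from a burst-and-steady-state fit. Data came from Cleave-'n-Seq, in which […] transcribed, DNA-blocked target RNA library was mixed with 1 nM active affinity-purified piRISC carrying one synthetic guide, with or without 500 nM GTSF1 partner protein, in HEPES–potassium acetate buffer at 33 °C for 0–8 or 0–960 min. Uncleaved targets were sequenced and normalised to depth and to weakly complementary targets, three trials were pooled, and k3 was capped at 0.0001 min^-1.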
AGGACCUACAGCUUGCAUUGUAUUUUCAAA: the “pre-steady-state target cleavage rate” value came to 0.186 ± 0.042.
Still for that read-out and setting: the result for UCCUGGAUGUCGUCUGCAUAGUAUUUAGUUA reads 0.0162 ± 0.0045; that for UCCUGGAUCAGCUAGCAUAGUAUUUACAAA, 0.275 ± 0.063; that for UCCUCCUACAGGAUGCAUAGUAUUUUCAAA, 0.252 ± 0.045.
Same read-out and setting: the result for AGGACCUACAGCUACGAUAGUAUUUAGUAA reads 0.153 ± 0.045.
Still for that read-out and setting: the result for UGGACCUACAGCUUGGUUAGUAUUUACAAA reads 0.0192 ± 0.0071; that for UGGACCUACAGCUUGCAUAAGUAUUUAGUUA, 0.00443 ± 0.0043; that for UCCUGGAUGUCGAACCUUAGUAUUUAGUUA, less than 0.0001.
Turning to UCCUGGAUCACCUUGCAUAGUAUUUUCAAA, the “pre-steady-state target cleavage rate” value stood at 0.0512 ± 0.019.
On the same count and under the same terms, next, UCCUCCUACAGCUUGCAUAGUAUAAACAAA: 0.329 ± 0.056; UCCUGCUACAGCUUGCAAUGUAUUUUCAAA: 0.0162 ± 0.0062.
Turning to UCGAGCUACAGCUUGCAUAGUAUUUUCAAA, the “pre-steady-state target cleavage rate” value stood at 0.269 ± 0.039.

The test is the same for the next values; noted with them: guide: L1MC piRNA 5'p-UAACUAAAUACUAUGCAAGCUGUAGGUCCU; auxiliary factor: none (no GTSF1).
As for “UGGACCUACAGCUUGCAUAGUAUUUAGUUU [g2:g29:cont:t1U]”, the “pre-steady-state target cleavage rate” value was 0.0974 ± 0.02.
Still for that read-out and setting: the result for UCCUGGAUGUCGAACUAUAGUAUUUAGUUA reads less than 0.0001; that for UGGACCUACAGCUUGCAAAGUAUUUAGUUA, 0.0474 ± 0.0097; that for UCGACCUACAGCUUGAAUAGUAUUUAGUUA, 0.0397 ± 0.0067.
